# From the supplement of paper PMC8728848
# The other results are listed elsewhere or left out.
# B1: Thrombomodulin (Mus musculus) (protein)
# chain: ALAKLQPTGSQCVEHECFALFQGPATFLDASQACQRLQGHLMTVRSSVAADVISLLLSQSSMDLGPWIGLQLPQGCDDPVHLGPLRGFQWVTGDNHTSYSRWARPNDQTAPLCGPLCVTVSTATEAAPGEPAWEEKPCETETQGFLCEFYFTASC
# What was measured:
# Assay in all cases: glycan array binding signal (z-score within array); higher = stronger binding
# Conditions in all cases: glycan notation: IUPAC condensed, linker removed
# [1] = molecular target: Neu5Ac(a2-6)Gal(b1-4)GlcNAc(b1-2)Man(a1-3)[Man(a1-6)]Man(b1-4)GlcNAc(b1-4)GlcNAc
# How it was run: (§1)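 The binding signal is a Z-score computed within each array and averaged over linkers. Arrays of the same protein sequence at different concentrations or buffers were also averaged together. Data originate from 3228 arrays in the Consortium for Functional Glycomics database, kept only where the protein sequence was available.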
# [2] = molecular target: Neu5Ac(a2-6)Gal(b1-4)GlcNAc(b1-2)Man(a1-3)[Neu5Ac(a2-3)Gal(b1-4)GlcNAc(b1-2)Man(a1-6)]Man(b1-4)GlcNAc(b1-4)GlcNAc
# How it was run: as §1
# [3] = molecular target: Neu5Ac(a2-6)Gal(b1-4)GlcNAc(b1-2)Man(a1-3)[Neu5Ac(a2-6)Gal(b1-4)GlcNAc(b1-2)Man(a1-6)]Man(b1-4)GlcNAc(b1-4)GlcNAc
# How it was run: as §1
# [4] = molecular target: Neu5Ac(a2-6)Gal(b1-4)GlcNAc(b1-2)Man(a1-3)[Neu5Ac(a2-6)Gal(b1-4)GlcNAc(b1-2)Man(a1-6)]Man(b1-4)GlcNAc(b1-4)[Fuc(a1-6)]GlcNAc
# How it was run: as §1
# [5] = molecular target: Neu5Ac(a2-6)Gal(b1-4)GlcNAc(b1-2)Man(a1-6)Man(b1-4)GlcNAc(b1-4)GlcNAc
# How it was run: as §1
# [6] = molecular target: Neu5Ac(a2-6)Gal(b1-4)GlcNAc(b1-2)Man(a1-6)[Gal(b1-4)GlcNAc(b1-2)Man(a1-3)]Man(b1-4)GlcNAc(b1-4)GlcNAc
# How it was run: as §1
# [7] = molecular target: Neu5Ac(a2-6)Gal(b1-4)GlcNAc(b1-2)Man(a1-6)[GlcNAc(b1-2)Man(a1-3)]Man(b1-4)GlcNAc(b1-4)GlcNAc
# How it was run: as §1
# [8] = molecular target: Neu5Ac(a2-6)Gal(b1-4)GlcNAc(b1-2)Man(a1-6)[Man(a1-3)]Man(b1-4)GlcNAc(b1-4)GlcNAc
# How it was run: as §1
# [9] = molecular target: Neu5Ac(a2-6)Gal(b1-4)GlcNAc(b1-2)[Neu5Ac(a2-6)Gal(b1-4)GlcNAc(b1-4)]Man(a1-3)[GlcNAc(b1-4)][Neu5Ac(a2-6)Gal(b1-4)GlcNAc(b1-2)[Neu5Ac(a2-6)Gal(b1-4)GlcNAc(b1-6)]Man(a1-6)]Man(b1-4)GlcNAc(b1-4)GlcNAc
# How it was run: as §1
# [10] = molecular target: Neu5Ac(a2-6)Gal(b1-4)GlcNAc(b1-2)[Neu5Ac(a2-6)Gal(b1-4)GlcNAc(b1-4)]Man(a1-3)[GlcNAc(b1-4)][Neu5Ac(a2-6)Gal(b1-4)GlcNAc(b1-4)Man(a1-6)]Man(b1-4)GlcNAc(b1-4)GlcNAc
# How it was run: as §1
# [11] = molecular target: Neu5Ac(a2-6)Gal(b1-4)GlcNAc(b1-2)[Neu5Ac(a2-6)Gal(b1-4)GlcNAc(b1-6)]Man(a1-6)[Neu5Ac(a2-6)Gal(b1-4)GlcNAc(b1-2)Man(a1-3)][GlcNAc(b1-4)]Man(b1-4)GlcNAc(b1-4)GlcNAc
# How it was run: as §1
# [12] = molecular target: Neu5Ac(a2-6)Gal(b1-4)GlcNAc(b1-3)Gal(b1-3)GlcNAc
# How it was run: as §1
# [13] = molecular target: Neu5Ac(a2-6)Gal(b1-4)GlcNAc(b1-3)Gal(b1-4)GlcNAc
# How it was run: as §1
# [14] = molecular target: Neu5Ac(a2-6)Gal(b1-4)GlcNAc(b1-3)Gal(b1-4)GlcNAc(b1-2)Man(a1-3)[Neu5Ac(a2-6)Gal(b1-4)GlcNAc(b1-3)Gal(b1-4)GlcNAc(b1-2)Man(a1-6)]GalNAc
# How it was run: as §1
# [15] = molecular target: Neu5Ac(a2-6)Gal(b1-4)GlcNAc(b1-3)Gal(b1-4)GlcNAc(b1-3)Gal(b1-4)GlcNAc
# How it was run: as §1
# [16] = molecular target: Neu5Ac(a2-6)Gal(b1-4)GlcNAc(b1-3)Gal(b1-4)GlcNAc(b1-3)Gal(b1-4)GlcNAc(b1-2)Man(a1-3)[Neu5Ac(a2-6)Gal(b1-4)GlcNAc(b1-3)Gal(b1-4)GlcNAc(b1-3)Gal(b1-4)GlcNAc(b1-2)Man(a1-6)]GalNAc
# How it was run: as §1
# [17] = molecular target: Neu5Ac(a2-6)Gal(b1-4)GlcNAc(b1-3)Gal(b1-4)GlcNAc(b1-3)GalNAc
# How it was run: as §1
# [18] = molecular target: Neu5Ac(a2-6)Gal(b1-4)GlcNAc(b1-3)Gal(b1-4)GlcNAc(b1-3)[Neu5Ac(a2-6)Gal(b1-4)GlcNAc(b1-3)Gal(b1-4)GlcNAc(b1-6)]GalNAc
# How it was run: as §1
# [19] = molecular target: Neu5Ac(a2-6)Gal(b1-4)GlcNAc(b1-3)Gal(b1-4)GlcNAc(b1-6)[Gal(b1-3)]GalNAc
# How it was run: as §1
# [20] = molecular target: Neu5Ac(a2-6)Gal(b1-4)GlcNAc(b1-3)Gal(b1-4)[Fuc(a1-3)]GlcNAc(b1-3)Gal(b1-4)[Fuc(a1-3)]GlcNAc
# How it was run: as §1
# [21] = molecular target: Neu5Ac(a2-6)Gal(b1-4)GlcNAc(b1-3)GalNAc
# How it was run: as §1
# [22] = molecular target: Neu5Ac(a2-6)Gal(b1-4)GlcNAc(b1-3)[Neu5Ac(a2-6)Gal(b1-4)GlcNAc(b1-6)]GalNAc
# How it was run: as §1
# [23] = molecular target: Neu5Ac(a2-6)Gal(b1-4)GlcNAc(b1-6)GalNAc
# How it was run: as §1
# [24] = molecular target: Neu5Ac(a2-6)Gal(b1-4)GlcNAc(b1-6)[Gal(b1-3)GlcNAc(b1-3)]Gal(b1-4)Glc
# How it was run: as §1
# [25] = molecular target: Neu5Ac(a2-6)Gal(b1-4)GlcNAc(b1-6)[Gal(b1-3)]GalNAc
# How it was run: as §1
# [26] = molecular target: Neu5Ac(a2-6)Gal(b1-4)GlcNAc6S
# How it was run: as §1
# Neu5Ac(a2-6)GalNAc = molecular target: Neu5Ac(a2-6)GalNAc
# How it was run: as §1
# [27] = molecular target: Neu5Ac(a2-6)GalNAc(b1-4)GlcNAc
# How it was run: as §1
# [28] = molecular target: Neu5Ac(a2-6)GalNAc(b1-4)GlcNAc6S
# How it was run: as §1
# [29] = molecular target: Neu5Ac(a2-6)GlcNAc(b1-4)GlcNAc
# How it was run: as §1
# [30] = molecular target: Neu5Ac(a2-6)GlcNAc(b1-4)GlcNAc(b1-4)GlcNAc
# How it was run: as §1
binder,measurement,setting,value
B1,glycan array binding signal (z-score),[1],0.007
same,glycan array binding signal (z-score),[2],0.176
same,glycan array binding signal (z-score),[3],-0.025
same,glycan array binding signal (z-score),[4],0.467
same,glycan array binding signal (z-score),[5],-0.321
same,glycan array binding signal (z-score),[6],-0.119
same,glycan array binding signal (z-score),[7],0.052
same,glycan array binding signal (z-score),[8],0.066
same,glycan array binding signal (z-score),[9],-0.168
same,glycan array binding signal (z-score),[10],0.333
same,glycan array binding signal (z-score),[11],-0.326
same,glycan array binding signal (z-score),[12],-0.141
same,glycan array binding signal (z-score),[13],-0.376
same,glycan array binding signal (z-score),[14],-0.223
same,glycan array binding signal (z-score),[15],-0.258
same,glycan array binding signal (z-score),[16],0.107
same,glycan array binding signal (z-score),[17],-0.161
same,glycan array binding signal (z-score),[18],-0.041
same,glycan array binding signal (z-score),[19],-0.257
same,glycan array binding signal (z-score),[20],-0.352
same,glycan array binding signal (z-score),[21],-0.35
same,glycan array binding signal (z-score),[22],-0.137
same,glycan array binding signal (z-score),[23],-0.181
same,glycan array binding signal (z-score),[24],-0.156
same,glycan array binding signal (z-score),[25],-0.336
same,glycan array binding signal (z-score),[26],-0.551
same,glycan array binding signal (z-score),Neu5Ac(a2-6)GalNAc,-0.171
same,glycan array binding signal (z-score),[27],-0.193
same,glycan array binding signal (z-score),[28],0.316
same,glycan array binding signal (z-score),[29],-0.205
same,glycan array binding signal (z-score),[30],-0.115
